Results reported in PubChem BioAssay AID1346428 (National Center for Advancing Translational Sciences (NCATS), 2018).
Values joined by “and” are separate entries in the source; they are usually repeats but may differ in a detail not shown here. Identical values can stand only once. Hit rate of the full screen: of about 48,000 compounds, about 1,200 (2.5%) were called active. About 2% were inconclusive and are not listed.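 The calls were made as follows: active = activation of at least 60% and not above a set upper limit (about 1 call in 100 departs from these limits); inconclusive = activation of 40% to 60%, or above that upper limit; inactive = activation under 40%.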 The list shows a part of the results.

The compounds below were run against Probable G-protein coupled receptor 32 (Homo sapiens) (UniProt O75388) (assay: qHTS for Agonists of Human Resolvin D1 Receptor DRV1). Settings: CHO-K1 GPR32 beta-arrestin PathHunter luminescence, 90 min; at 76.9 µM; stronger effect = higher value; zero percent set by DMSO-only wells.
Outline: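 Engineered CHO-K1 line co-expressing GPR32-ProLink and EA-beta-arrestin. Compound treatment lasted 90 min at 37 °C. Luminescence was recorded after 1 h with substrate at ambient temperature, relative to DMSO basal wells.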
Also: 0% is about no effect.

Chain of UniProt O75388 (O75388 whole entry, looked up): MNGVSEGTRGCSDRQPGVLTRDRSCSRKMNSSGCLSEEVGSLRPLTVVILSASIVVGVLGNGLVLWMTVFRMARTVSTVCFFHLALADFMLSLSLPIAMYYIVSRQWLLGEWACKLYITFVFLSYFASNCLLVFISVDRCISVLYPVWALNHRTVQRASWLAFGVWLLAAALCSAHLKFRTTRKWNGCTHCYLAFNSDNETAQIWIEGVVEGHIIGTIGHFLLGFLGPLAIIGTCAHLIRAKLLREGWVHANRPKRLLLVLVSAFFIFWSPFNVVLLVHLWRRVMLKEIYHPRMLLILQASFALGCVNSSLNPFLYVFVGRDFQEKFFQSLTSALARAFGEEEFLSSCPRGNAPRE

Compound | activation
CCN(CC)C(=O)Cn1c(=O)n(-c2ccc(C)c(C)c2)c(=O)c2c(C)c(C(=O)N(CC)CC)sc21 | inactive: -2.23%
CCOc1ccc(NC(=O)c2c(NCc3cccnc3)sc3c2CCC(C)C3)cc1 (stereo not given) | inactive: -7.07%
CCCCCN1C(C(=O)c2ccccc2)=C(NC(=O)c2ccc(C)cc2)c2ccccc2S1(=O)=O | inactive: -2.4%
CC1CCc2onc(C(=O)N3CCN(c4ccc(F)cc4)CC3)c2C1 (stereo not given) | inactive: -16.2%
CC(=O)c1ccc(O)c(C(N)=O)c1 | inactive: -17.6%
CC1CCC(N2CC(=O)N(CCC3=CCCCC3)C(c3ccc(F)cc3)C2=O)CC1 (stereo not given) | inactive: -13.3%
COc1ccc(OC)c(NC(=O)c2cnc(Nc3ccc(C)c(Cl)c3)c3ccccc23)c1 | inactive: -0.21%
COc1cc(Cl)c(NC(=O)CCc2nc3cccnc3n2-c2ccccc2)c(OC)c1 | inactive: -6.04%
CC(=O)Nc1c(C)nn(-c2ccccc2)c1N1CCC(C(=O)NCc2cccc(Cl)c2)CC1 | inactive: -8.58%
CC(C)(C)OC(=O)N1CCC(c2c(C(=O)N3CCN(c4ccccc4F)CC3)cnn2-c2ccccc2Cl)CC1 | inactive: -2.03%
Cc1ccc(NC(=O)c2cnc(SCC(=O)N3CCCc4ccccc43)n(C)c2=O)cc1 | inactive: -5.65%
CSC(N)=NCCC[C@H](N)C(=O)O | inactive: -4.97%
CC1=C(C(=O)Nc2ccc(Cl)cc2)C(c2cccs2)n2nc(SCc3cccc(C)c3)nc2N1 (stereo not given) | inactive: -1.1%
O=C(CSc1nc2cc3ccccc3cc2[nH]1)Nc1ccc(F)cc1 | active: 65.1%
CCOc1ccc(NC(=O)CCNS(=O)(=O)c2ccc3c(c2)CCCC(=O)N3)cc1 | inactive: -2.51%
COc1ccc(N2CCN(C(=O)C3CCN(S(=O)(=O)c4cccc5nonc45)CC3)CC2)cc1 | inactive: 9.14%
CCN1CCN(CCCNC(=O)CS(=O)(=O)Cc2nc(-c3ccccc3C)oc2C)CC1 | inactive: 0.252%
Cc1cc(C)cc(NC(=O)c2ccc3oc(=O)c(S(=O)(=O)c4ccc(F)cc4)cc3c2)c1 | active: 103%
COc1cccc2sc(NC(=O)c3ccc(S(=O)(=O)N4CCC(C)CC4)cc3)nc12 | inactive: -8.63%
CCOC(=O)c1noc2ncnc(Nc3cc(Cl)c(OC)cc3OC)c12 | inactive: 14.2%
COc1ccc(NC(=O)Cn2c(=O)c3cccn3c3ccccc32)cc1Cl | inactive: -29.7%
O=C(Nc1ccc(-c2nc3ccccc3o2)c(O)c1)c1ccccc1 | inactive: -2.35%

Compound | activation
Cc1ccc(-c2nnc(Nc3ccc(C(N)=O)cc3)c3ccccc23)cc1S(N)(=O)=O | inactive: -2.09%
COc1ccc(-c2nc3sc(CCNC(=O)Cc4ccc(F)cc4)c(C)n3n2)cc1 | inactive: -10.2%
Cc1sc(-c2cc3ccccc3oc2=O)nc1-c1ccc(Cl)c(Cl)c1 | inactive: -4.18%
COc1ccc(C)cc1NC(=O)Nc1cc(C(=O)NCc2ccc(C)cc2)ccc1N1CCCC1 | inactive: -10.4%
CCOc1ccccc1OCCCCn1c(-c2ccc(Cl)cc2)nc2ccccc2c1=O | inactive: -4.17%
CCOc1ccc(CNCc2c(C(=O)O)c(C)n(Cc3ccc(C)cc3)c2C)cc1 | inactive: -6.13%
Cc1nnc(N2CCCC(C(=O)NCCN(C)C)C2)c2nn(-c3ccccc3)c(C)c12 (stereo not given) | inactive: 4.9%
O=S(=O)(Nc1ccc(-c2ccc(N3CCCC3)nn2)cc1)c1ccc(C(F)(F)F)cc1 | inactive: -10.1%
CCC(Sc1nc(-c2ccccc2)[nH]c1S(=O)(=O)c1ccc(C)cc1)C(=O)O (stereo not given) | inactive: 6.18%
Cc1ccc(-n2ncc3c(N(C)C)ncnc32)cc1Cl | inactive: -4.69%
Cc1cccc(-c2nc(CCNC(=O)c3ccc(Br)o3)cs2)c1 | inactive: 8.91%
Cc1cc(C)cc(OC(=O)c2cc(-c3ccc(Cl)cc3)on2)c1 | inactive: 12.8%
CC(C)c1ccc(-c2noc(SCC(=O)N3CCCCC3C)n2)cc1 (stereo not given) | inactive: 31.7%
Cc1cc(=O)n(Cc2ccc(F)cc2Cl)c2c1c(C)nn2C | inactive: 7.11%
O=C(NCCCN1CCN(c2ccc(F)cc2)CC1)c1cc2c(Cl)nc3ccccc3c2s1 | inactive: -12.4%
Cc1ccccc1CNC(=O)c1oc2c(c1C)-c1nn(Cc3ccc(Cl)cc3)cc1CC2 | inactive: -12.3%
CCN(CC)S(=O)(=O)c1ccc2c(c1)N(CC(=O)Nc1ccc(OC)cc1)C(=O)CS2 | inactive: -6.69%
COC(=O)CSc1nc2sc3c(c2c(=O)n1-c1ccc(C)cc1)CC(C(C)C)OC3 (stereo not given) | inactive: 19.1%
CCOc1ccc(NC(=O)C2CCCN(c3cnccn3)C2)cc1 (stereo not given) | inactive: 0.0273%
CCOc1ccc(Cl)cc1CNCCCSc1nnnn1C | inactive: 1.73%
COC(=O)c1ccccc1NC(=O)c1cnn(-c2ccc(F)cc2)c1-n1cccc1 | inactive: 25.2%
CCCCCOC(=O)Nc1nc(=O)n([C@@H]2O[C@H](C)[C@@H](O)[C@H]2O)cc1F | inactive: 18.3%

Compound | activation
Cc1ccc(CN(C(=O)COc2ccccc2[N+](=O)[O-])c2ccccn2)cc1 | inactive: -13.1%
Cc1cccc(OCC(=O)NCCc2nc3ccccc3[nH]2)c1C | inactive: -3.52%
O=C(NCc1ccccc1Cl)C1CCN(C(=O)N2CCOc3ccccc32)CC1 | inactive: -9.99%
CCC(CC)C(=O)Nc1nnc(S(=O)(=O)N2CCc3ccccc32)s1 | inactive: 10.8%
CCCN(CCC)CCNC(=O)CN1C(=O)COc2ccc(S(=O)(=O)N3CCOCC3)cc21 | inactive: -16%
CCOc1ccc(-n2nc(CO)c(C(=O)NCc3ccccn3)n2)cc1 | inactive: -5.77%
COc1ccc(CNC(=O)CCc2c(C)c3cc4c(C)c(C)oc4cc3oc2=O)cc1 | inactive: -12.4%
Cc1ccc(C(=O)Nc2nnc(S(=O)(=O)N3CCCCCC3)s2)cc1 | inactive: 21.9%
CC(=O)Nc1ccc(-c2nnc3n(Cc4ccc(C)cc4)c(=O)c4ccccc4n23)cc1 | inactive: -9.15%
CC(=O)N1CCc2cc(S(=O)(=O)NC(CC(C)C)C(=O)NCc3ccccc3Cl)ccc21 (stereo not given) | inactive: -7.55%
Cc1c(NC(=O)c2cc(-c3ccccc3O)on2)c(=O)n(-c2ccccc2)n1C | inactive: 11%
O=c1c(NCc2ccccc2Cl)nccn1-c1ccccc1 | inactive: -0.425%
CCOC(=O)CCC(=O)Nc1nnc2n1CCS2 | inactive: -21.7%
CCCCCOc1ccc(Cn2c(=O)oc3ccc(C)cc32)cc1OC | inactive: -17.7%
CCC(=O)N1CCc2cc(Br)cc(S(=O)(=O)N3CCC(C(=O)Nc4ccccc4F)CC3)c21 | inactive: 34.3%
CCCCNc1ccc(C(=O)OCCN(C)C)cc1 | inactive: -21.7% and inactive: -4.09%
O=C1CC(c2cc(F)cc(F)c2)c2cc3c(cc2N1)OCO3 (stereo not given) | inactive: 38.5%
Cc1c(C(=O)N2CCN(c3ccc(F)cc3)CC2)sc2nc3n(c(=O)c12)CCC3 | inactive: -5.59%
CCCCS(=O)(=O)c1oc(-c2cccs2)nc1S(=O)(=O)c1ccc(F)cc1 | inactive: -8.15%
Cc1cc(C)cc(C(=O)n2nc(C)c(S(=O)(=O)N3CCCCCC3)c2C)c1 | inactive: 6.92%
O=C(Nc1ccc(Cl)cc1Cl)c1cc(S(=O)(=O)N2CCCCCC2)ccc1F | inactive: -23.8%
CCCCc1nn2c(=O)cc(COC(=O)c3ccccc3NC(=O)c3cccs3)nc2s1 | inactive: -3.97%

Compound | activation
CCCOc1ccc(NC(=O)CC2C(=O)N(c3ccc(C)cc3)C(=O)N2CCc2ccncc2)cc1 (stereo not given) | inactive: -23.7%
O=C(Cn1ccn(-c2ccc(F)cc2)c(=O)c1=O)Nc1ccccc1C(F)(F)F | inactive: -2.42%
Cc1cccc(NC(=O)Cn2nnc(C(=O)NCc3ccco3)c2N)c1 | inactive: 27.3%
Cc1oc(-c2ccc(C(=O)NCCN(C)C)cc2)nc1CS(=O)(=O)c1ccccc1 | inactive: -8.67%
O=C(Cn1nc(-c2ccccc2)nc(Cc2ccccc2)c1=O)Nc1ccc(Cl)cc1 | inactive: -2.07%
CC(C)Cn1c(C2CC(=O)N(c3ccccc3Cl)C2)nc2ccccc21 (stereo not given) | inactive: 7.36%
Cc1cccc(-n2c(N)cc(=O)nc2SCC(=O)Nc2ccc(F)cc2)c1C | inactive: 1.15%
COc1ccc(Br)cc1C(=O)Nc1ccc(-c2nc3ncccc3o2)cc1C | inactive: 24.6%
COc1ccc(NC(=O)c2ccc(-c3ccc(-c4noc(C)n4)cc3C)cc2)cc1N1CCN(C)CC1 | inactive: -7.88%
CCc1ccc(NC(=O)CSc2ccc3nc(-c4ccc(OC)cc4)cn3n2)cc1 | inactive: -12.3%
Cc1ccc(C(=O)NCC(=O)OCc2cc(=O)n3ccsc3n2)cc1 | inactive: -14.9%
CCC(C(=O)NCc1ccc2c(c1)CCN2C(=O)c1ccc(F)cc1)c1ccccc1 (stereo not given) | inactive: -17.5%
Cc1noc(-c2ccc(-c3noc(-c4ccccc4)n3)cc2)n1 | inactive: 14.7%
CCc1ccc(C2CC(=O)c3c([nH]c(C(=O)OCc4ccc(C)cc4)c3C)C2)cc1 (stereo not given) | inactive: 9.09%
O=C(NCCc1ccc(Cl)cc1)c1ccc(CS(=O)(=O)Cc2ccc(Cl)cc2)o1 | inactive: 27.6%
CCc1nc2ccc(C(=O)NCCc3ccc(OC)cc3OC)cc2nc1CC | inactive: -0.658%
CCOC(=O)c1cc(-c2ccc(C)cc2)n(CCC(=O)Nc2cc(Cl)ccc2C)c1C | inactive: -19.5%
CC1CCN(S(=O)(=O)c2ccc3[nH]cc(C(=O)NCc4ccc(F)cc4)c(=O)c3c2)CC1 | inactive: -41.8%
CCOc1ccc(CCNC(=O)c2cc(Nc3ccc(C)cc3C)nc3ccccc23)cc1OCC | inactive: 0.272%
